Reference: ChEMBL document CHEMBL4888484, “Replenishing the malaria drug discovery pipeline: Screening and hit evaluation of the MMV Hit Generation Library 1 (HGL1) against asexual blood stage Plasmodium falciparum ,using a nano luciferase reporter read-out” (2022)
The whole screen tested about 150,000 compounds, of which about 540 (0.36%) showed an effect of 50% or more. The list shows a part of the results.

Tested on: Plasmodium falciparum
Experiment: Primary screen in NF54 nanoGlo assay, in single point, at 2uM, 72h; a lower Z score goes with more inhibition
Assay type: functional, Erythrocyte
Details: timepoint 72 hour

Row | Compound | % Inhibition | Z score
1 | N/C(CS(=O)(=O)c1ccc(Cl)cc1)=N/O | -9% | 1.18
2 | COc1c(C(=O)N2CC3(CCCCC3)[C@@H]2C(C)C)cnn1C | 3% | -0.4
3 | Cc1nc2c(c(N3CCCCC3)n1)CN(C(=O)c1ccc(-c3ccccc3)cc1)CC2 | -4% | 0.47
4 | CCCc1ccc(S(=O)(=O)N2CCN(c3c(-c4ccccc4)cnc4ncnn34)CC2)cc1 | -1% | 0.05
5 | O=C(Cc1ccc(Cl)s1)NC[C@H]1CCCC[C@@H]1O | -11% | 1.7
6 | CC(C)(C)CC(C)(C)NC1=NCCNC12CCN(C(=O)OC(C)(C)C)CC2 | -12% | 1.62
7 | CC(C)c1nnc(CN2CCC3(CC2)C[C@H](c2ccccc2)CN(C)C3)o1 | -6% | 1.18
8 | O=C(NCc1ccon1)c1cnc(Cc2c(Cl)cccc2Cl)nc1O | 2% | -0.39
9 | CC(C)[C@@]1(O)CN(CCN2CCCC2=O)C[C@@H]1C | -8% | 1.52
10 | Cc1nc(-c2cc(S(=O)(=O)N3CCC(C(=O)Nc4ccc5c(c4)OCCO5)CC3)c(C)s2)no1 | -21% | 1.86
11 | CCCNC(N)=NCC1CCN(C(=O)OC(C)(C)C)CC1 | -8% | 1.61
12 | Cc1noc([C@@H]2CN(C(=O)c3ccoc3C)C[C@H]2C(N)=O)n1 | -11% | 1.64
13 | Cc1ccc(Cn2ncc3c(N4CCN(c5ccccc5C)CC4)ncnc32)cc1 | -11% | 2.04
14 | Cc1ccc(OCC[C@H]2CCN(C(=O)Cc3cccs3)C2)cc1 | -6% | 0.9
15 | Cc1nn(CCO)c(C)c1CN1CCc2nocc2C1 | -15% | 1.63
16 | C[C@H](NCc1c2c(nn1C)CCCC2)c1ccc(F)c(F)c1 | -12% | 1.6
17 | CCn1cc(OCCCOc2cccc(C#N)c2)cn1 | 0% | -0.04
18 | CCn1ncc(-c2cc(C(=O)Nc3ccc(F)cc3OC(F)F)c3ccccc3n2)c1C | -1% | 0.1
19 | c1ccc(CN[C@H]2CC23CCCCC3)cc1 | -3% | 0.52
20 | O=C(Cc1noc(CNC(=O)NC2CCCCC2)n1)NC1CCCCC1 | 16% | -1.99
21 | CCc1nnc(NC[C@H](C)Oc2ccccc2OC)nc1CC | -16% | 2.52

Row | Compound | % Inhibition | Z score
22 | CN(Cc1cnn(C)c1)C(=O)[C@H]1CC(=O)N(C2CC2)C1 | 2% | -0.29
23 | O=C1NCCN1C(=O)NCc1cnn2c1CCCC2 | -10% | 1.88
24 | COCCN(CC(=O)N(CCc1c[nH]c2ccccc12)Cc1ccccc1)C(=O)Nc1ccc(C#N)cc1 | -19% | 2.09
25 | COc1ccc([C@H](C)N[C@H]2CC[C@H](O)CC2)cc1F | -11% | 1.6
26 | Cc1ccc(S(=O)(=O)Nc2nc3c(C)cc(NC(=O)c4ccc(C)c(F)c4)cc3s2)cc1 | 7% | -0.8
27 | O=C(Cn1c(=O)c2sccc2n(CC(=O)NC2CCCCC2)c1=O)NCc1cccs1 | 25% | -2.87
28 | O=C(c1cccnc1)N1C[C@@H]2C[C@@H](O)CN2C2(CN(Cc3cccc(Cl)c3)C2)C1 | -12% | 1.79
29 | CC1CCN(c2cncnc2-n2cc(NC(=O)c3ccc(Cl)s3)cn2)CC1 | -11% | 1.23
30 | CN1CCNC(=O)C12CCN(S(=O)(=O)c1cccc(Cl)c1)CC2 | -11% | 2.08
31 | CCS(=O)(=O)N1CCC[C@H](c2nnc3n2CCN(C(=O)c2ccc(OC)cc2C)C3)C1 | -5% | 1.02
32 | COc1ccc(OC)c(NC(=O)N(C)Cc2nnc(C)o2)c1 | 4% | -0.63
33 | c1csc(-c2ccc(N3CCNCC3)nn2)c1 | -15% | 1.71
34 | CC[C@@H](c1cccnc1)N(C)Cc1ccc(C(F)(F)F)nc1 | 7% | -0.94
35 | O=c1c2ccccc2nnn1Cc1cc(Cl)c2c(c1)OCO2 | -11% | 1.81
36 | COc1ccc(S(=O)(=O)N2CCN(CC3CC4C=CC3C4)CC2)cc1 (stereo not drawn) | -3% | 0.41
37 | O=C(Nc1cc(F)ccc1F)c1cc2nc(-c3ccco3)cc(C(F)(F)Cl)n2n1 | -13% | 1.68
38 | C#CCOc1nc(Nc2ccc(C)cc2)nc(N(c2ccccc2)c2ccccc2)n1 | -34% | 3.98
39 | Cc1cccc(C(=O)NCCCN(C)c2ccccc2)n1 | 3% | -0.57
40 | O=C(c1ccc2c(c1)OCO2)N(CC(=O)N1CCc2sccc2C1COc1ccccc1)CC1CCCO1 (stereo not drawn) | -27% | 2.58
41 | C[C@@H](C(=O)N1CCc2ccccc21)N(C)Cc1nccn1C(F)F | -13% | 1.74
42 | Cc1cc(-c2c(C)sc(C)c2S(=O)(=O)N2CCOCC2)on1 | -8% | 1.45

Row | Compound | % Inhibition | Z score
43 | CCC1CCCC(NC(=O)NOC)C1 (stereo not drawn) | -2% | 0.27
44 | O=C(NC[C@]1(O)CCCNC1)c1ccc(-c2c(O)ccc3ccccc23)cc1 | 1% | -0.1
45 | COc1cccc(O[C@@H](C)CNc2ncccn2)c1 | -2% | 0.24
46 | Cc1nc(-n2nc(C)c(CC(=O)N3CCN(c4cccc(C(F)(F)F)c4)CC3)c2O)sc1C | -7% | 0.92
47 | CC[C@H](O)CN(Cc1ccc(S(C)(=O)=O)cc1)c1ccccc1 | 0% | 0.02
48 | O=C(CCc1ccccc1)Nc1ncn(Cc2ccccn2)n1 | 2% | -0.23
49 | COCC(=O)N(C1CCOCC1)C1CCN(C(=O)c2ccccc2F)CC1 | -6% | 0.74
50 | Cc1c(S(=O)(=O)NC2CCN(c3nccn3C)CC2)cnn1C | -7% | 0.94
51 | CC(C)(O)c1cn(C2CN(C(=O)c3ccc(Cl)cc3O)C2)nn1 | -3% | 0.51
52 | CCOCCCN(CC(=O)N(Cc1cccn1Cc1ccc(Br)cc1)C1CCCCC1)C(=O)c1ccc(C)cc1 | -16% | 2.31
53 | CC(C)(C)NC(=O)N(Cc1nccn1Cc1c(F)cccc1Cl)C1CC1 | 5% | -0.58
54 | CCC1CC(C(=O)N2CCc3[nH]ncc3C2)CCO1 (stereo not drawn) | -12% | 2.17
55 | Cc1nnc(N2CCC(COc3ccc(C4CC4)nn3)CC2)s1 | -11% | 1.25
56 | CC(=O)c1ccc(CNc2nccc(C)n2)nc1C | -8% | 0.93
57 | CCN(C(=O)CCc1nc(-c2nn(-c3ccc(C)cc3)c(=O)n(C)c2=O)no1)c1cccc(Cl)c1 | 0% | -0.07
58 | Cc1cccc(-n2nc(-c3ccccc3)nc2CCn2ccc(=O)[nH]c2=O)c1 | -4% | 0.82
59 | Cc1cc([C@H](C)NCc2nnc(C)o2)c(C)o1 | -3% | 0.32
60 | CCC(=O)N1CCNc2ncc(C)cc21 | -4% | 0.4
61 | Cc1nnsc1C(=O)N[C@H]1CN(C2CCOCC2)C[C@@H]1C1CC1 | -21% | 4.18
62 | CC1=CC(c2cnc(-c3ccccc3)c(C)c2)CN(C(=O)c2ccccc2)C1c1ccccc1 (stereo not drawn) | 1% | -0.16
63 | Cc1ccc(C(=O)Nc2cnns2)cn1 | 5% | -0.71

Row | Compound | % Inhibition | Z score
64 | CC(C)c1nccn1CCC(=O)N1CCC2(CCCC2)CC1 | 7% | -1.03
65 | CS(=O)(=O)c1ccc(CNC(=O)NC[C@H]2CCCC23CC3)s1 | -1% | 0.12
66 | O=S(=O)(c1cccc(F)c1)N1CCC[C@](CC2CC2)(c2noc(-c3cccnc3)n2)C1 | 8% | -1
67 | C1=C(c2ccccc2)CCN(c2ncnc3c2CCNCC3)C1 | 19% | -2.53
68 | Cc1cc(C)n(C[C@@H](O)CCc2ccccc2)n1 | 0% | -0.03
69 | Cc1ccc(S(=O)(=O)N2CCO[C@@H](COc3ccccc3)C2)c(C)c1NS(C)(=O)=O | 0% | 0.05
70 | COc1ccc(CNCC[C@H](c2ccc(OC(C)C)cc2)C2CCCCC2)cc1OC(C)C | 12% | -1.46
71 | COc1cccc(C(=O)N2CCC[C@H](Oc3cccnn3)C2)c1OC | 3% | -0.52
72 | CN1C(=O)NCC12CCN(C(=O)c1ccnn1-c1ccccc1)CC2 | -5% | 1.01
73 | CC(C)C/C=C(\CN1CC[C@H](N)[C@@H](O)C1)c1ccccc1 | 7% | -1.02
74 | N#C[C@@]1(c2ccccc2)CCc2ncnc(N)c2C1 | -3% | 0.39
75 | Cc1ccc(CNC(=O)Cn2c(C)c(Cc3ccccc3)c(=O)n3nc(-c4ccccc4)nc23)cc1 | 13% | -1.68
76 | O=C(NS(=O)(=O)Cc1cccnc1)C1CCC(F)(F)CC1 | -5% | 0.76
77 | CCc1ncoc1C(=O)N[C@@H](C)c1ccc(F)c(Br)c1 | -5% | 0.65
78 | CCOc1ccccc1N1CCN(c2nnc(C)c(C)n2)CC1 | -6% | 1.33
79 | Cc1noc([C@H](C)NS(=O)(=O)c2ccnn2C(C)C)n1 | 0% | -0.07
80 | Cc1ccc(-n2nnnc2N2CCC(C(=O)N3CCCC3)CC2)cc1 | 6% | -0.71
81 | Cc1ncccc1CNC(=O)N[C@H]1COCC1(C)C | -9% | 1.64
82 | Cc1nn(C)c(C)c1C(=O)NS(=O)(=O)CCC1CCCC1 | 2% | -0.33
83 | O=C(CCNC(=O)C1CCCC1)Nc1ccnn1C1CCCC1 | 35% | -3.93
84 | Cc1nnc(CN(Cc2cccc(Br)c2)CC2CC2)n1C | -10% | 1.13
